Our source for the binding values is paper PMC10894277.

The chains behind the UniProt entries cited, without tags or fusion partners. Residues count along the entry.
UniProt B1AS29, residues 32-919: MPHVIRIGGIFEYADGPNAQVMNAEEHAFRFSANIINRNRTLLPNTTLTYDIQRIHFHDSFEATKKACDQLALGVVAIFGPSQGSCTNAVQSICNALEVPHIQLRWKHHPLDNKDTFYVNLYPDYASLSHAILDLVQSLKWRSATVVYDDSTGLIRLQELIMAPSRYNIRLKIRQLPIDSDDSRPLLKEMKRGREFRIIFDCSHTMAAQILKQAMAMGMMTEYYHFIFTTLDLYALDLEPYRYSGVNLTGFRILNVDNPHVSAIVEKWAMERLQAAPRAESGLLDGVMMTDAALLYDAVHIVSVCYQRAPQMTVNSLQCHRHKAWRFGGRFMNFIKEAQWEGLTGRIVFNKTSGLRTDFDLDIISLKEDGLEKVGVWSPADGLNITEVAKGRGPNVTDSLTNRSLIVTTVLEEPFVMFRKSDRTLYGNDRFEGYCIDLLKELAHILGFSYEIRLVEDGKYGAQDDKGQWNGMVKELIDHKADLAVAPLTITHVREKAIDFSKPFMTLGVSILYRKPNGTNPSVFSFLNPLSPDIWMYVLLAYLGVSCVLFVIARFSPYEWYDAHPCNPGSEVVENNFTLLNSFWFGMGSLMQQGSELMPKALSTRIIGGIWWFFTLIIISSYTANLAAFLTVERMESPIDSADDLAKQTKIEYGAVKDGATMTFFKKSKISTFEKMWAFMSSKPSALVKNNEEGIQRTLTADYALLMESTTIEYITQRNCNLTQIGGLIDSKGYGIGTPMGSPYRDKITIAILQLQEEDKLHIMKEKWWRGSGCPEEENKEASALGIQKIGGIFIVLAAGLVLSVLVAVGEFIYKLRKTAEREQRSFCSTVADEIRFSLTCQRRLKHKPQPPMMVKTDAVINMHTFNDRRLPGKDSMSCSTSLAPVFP
UniProt P39087, residues 32-908: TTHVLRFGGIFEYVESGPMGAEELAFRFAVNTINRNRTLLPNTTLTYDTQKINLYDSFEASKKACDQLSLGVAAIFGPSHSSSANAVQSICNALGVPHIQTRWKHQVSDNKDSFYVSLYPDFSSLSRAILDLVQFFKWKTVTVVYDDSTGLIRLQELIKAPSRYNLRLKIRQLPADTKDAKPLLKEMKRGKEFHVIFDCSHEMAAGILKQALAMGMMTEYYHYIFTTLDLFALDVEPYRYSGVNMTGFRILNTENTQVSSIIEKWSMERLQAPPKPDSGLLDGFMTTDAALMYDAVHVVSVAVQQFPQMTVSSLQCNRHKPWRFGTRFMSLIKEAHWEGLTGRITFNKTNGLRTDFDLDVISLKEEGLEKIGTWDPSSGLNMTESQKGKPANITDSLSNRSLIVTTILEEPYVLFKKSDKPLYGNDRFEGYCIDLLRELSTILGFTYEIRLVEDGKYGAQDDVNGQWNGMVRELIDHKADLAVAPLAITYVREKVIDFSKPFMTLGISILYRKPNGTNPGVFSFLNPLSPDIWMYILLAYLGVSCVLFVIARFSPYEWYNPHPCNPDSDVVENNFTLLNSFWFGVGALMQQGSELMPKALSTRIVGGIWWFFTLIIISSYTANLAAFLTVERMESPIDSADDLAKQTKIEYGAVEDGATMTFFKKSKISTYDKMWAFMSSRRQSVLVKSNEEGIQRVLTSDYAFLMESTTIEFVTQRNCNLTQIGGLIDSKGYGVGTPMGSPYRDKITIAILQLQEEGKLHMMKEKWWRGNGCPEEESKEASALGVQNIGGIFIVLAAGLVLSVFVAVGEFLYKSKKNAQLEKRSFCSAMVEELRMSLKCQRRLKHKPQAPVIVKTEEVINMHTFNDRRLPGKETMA

No constants are given. Whether binding was seen depends on the method and setting. Binding seen in cells or lysates may run through a third protein. Some results given as binding are weak or reduced against the parent protein; the word gives no strength.

Holding throughout (assay): co-IP; GluK2, GluK3, GluK4 or GluK5 antibody (1 ug) on Protein A agarose; mouse cortex (WT; also GluK3 KO) lysed in Buffer A (20 mM Tris-HCl pH 8.0, 150 mM NaCl, 5 mM EDTA, 1% Triton X-100); 4 °C overnight; washed twice with Buffer A plus 500 mM NaCl and four times with Buffer A; western blotting with GluK2-5 antibodies
(A western blot detects proteins with antibodies after separation by electrophoresis.)

The target in assay [1] is GluK3 kainate receptor subunit (mouse (endogenous in mouse cortex)) (UniProt B1AS29).
The target of assay [2] is T1, GluK4 kainate receptor subunit (mouse (endogenous in mouse cortex)) (UniProt Q8BMF5).
T1 sequence: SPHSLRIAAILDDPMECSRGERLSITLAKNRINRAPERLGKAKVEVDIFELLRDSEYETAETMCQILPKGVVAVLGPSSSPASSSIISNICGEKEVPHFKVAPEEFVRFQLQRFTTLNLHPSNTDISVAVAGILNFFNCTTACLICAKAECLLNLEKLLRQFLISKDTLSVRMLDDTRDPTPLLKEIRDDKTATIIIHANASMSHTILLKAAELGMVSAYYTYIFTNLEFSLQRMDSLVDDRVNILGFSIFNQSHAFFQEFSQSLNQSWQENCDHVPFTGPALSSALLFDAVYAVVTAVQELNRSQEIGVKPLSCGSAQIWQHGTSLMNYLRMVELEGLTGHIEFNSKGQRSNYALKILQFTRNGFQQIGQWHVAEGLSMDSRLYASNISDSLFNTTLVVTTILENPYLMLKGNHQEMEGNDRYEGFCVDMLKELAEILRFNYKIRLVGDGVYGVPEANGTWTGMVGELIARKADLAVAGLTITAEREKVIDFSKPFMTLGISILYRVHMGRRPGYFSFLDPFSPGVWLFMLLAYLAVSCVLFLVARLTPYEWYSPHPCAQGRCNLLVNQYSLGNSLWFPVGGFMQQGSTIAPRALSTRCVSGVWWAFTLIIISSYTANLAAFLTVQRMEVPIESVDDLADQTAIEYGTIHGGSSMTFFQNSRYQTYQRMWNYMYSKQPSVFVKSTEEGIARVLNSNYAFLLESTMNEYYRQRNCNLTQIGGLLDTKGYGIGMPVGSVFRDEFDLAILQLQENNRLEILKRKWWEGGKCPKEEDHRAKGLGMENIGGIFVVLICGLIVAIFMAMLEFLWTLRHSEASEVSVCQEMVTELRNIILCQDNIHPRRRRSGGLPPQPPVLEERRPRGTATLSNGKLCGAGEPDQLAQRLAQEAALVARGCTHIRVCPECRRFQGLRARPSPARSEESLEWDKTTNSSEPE

Assay [3] has as its target T2, GluK5 kainate receptor subunit (mouse (endogenous in mouse cortex)) (UniProt Q61626).
T2 sequence: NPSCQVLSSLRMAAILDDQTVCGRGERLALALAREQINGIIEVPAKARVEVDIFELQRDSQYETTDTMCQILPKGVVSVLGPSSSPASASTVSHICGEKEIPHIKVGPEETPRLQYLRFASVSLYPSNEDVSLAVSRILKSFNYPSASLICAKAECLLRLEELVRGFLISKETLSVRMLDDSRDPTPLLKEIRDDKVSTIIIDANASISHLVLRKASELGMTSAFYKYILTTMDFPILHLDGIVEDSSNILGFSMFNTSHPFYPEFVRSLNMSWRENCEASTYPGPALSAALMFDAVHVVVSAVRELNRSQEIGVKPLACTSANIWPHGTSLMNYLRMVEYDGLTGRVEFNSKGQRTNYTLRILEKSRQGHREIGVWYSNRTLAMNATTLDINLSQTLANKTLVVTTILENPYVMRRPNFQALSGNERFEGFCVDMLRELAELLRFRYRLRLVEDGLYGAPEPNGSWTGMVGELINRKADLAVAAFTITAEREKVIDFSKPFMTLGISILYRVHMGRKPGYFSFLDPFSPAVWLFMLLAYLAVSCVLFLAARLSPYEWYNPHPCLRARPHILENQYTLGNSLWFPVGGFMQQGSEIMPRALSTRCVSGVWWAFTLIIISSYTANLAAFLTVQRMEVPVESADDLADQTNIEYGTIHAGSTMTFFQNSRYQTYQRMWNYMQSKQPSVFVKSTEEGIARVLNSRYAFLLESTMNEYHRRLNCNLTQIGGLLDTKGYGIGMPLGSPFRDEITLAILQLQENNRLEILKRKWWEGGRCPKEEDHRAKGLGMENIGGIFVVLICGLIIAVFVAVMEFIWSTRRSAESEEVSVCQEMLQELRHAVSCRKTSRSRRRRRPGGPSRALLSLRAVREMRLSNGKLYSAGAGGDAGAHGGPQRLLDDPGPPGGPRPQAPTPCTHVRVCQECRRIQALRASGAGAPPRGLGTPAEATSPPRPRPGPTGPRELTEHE

Assay [4] deals with GluK2 kainate receptor subunit (mouse (endogenous in mouse cortex)) (UniProt P39087).

Consider “GluK2 kainate receptor subunit (from UniProt P39087 32-908)”, for which the binding entry in assay [1], in assay [2] and in assay [3] was “binds” throughout.
For “GluK3 kainate receptor subunit (from UniProt B1AS29 32-919)”, the binding result is given as “binds” in assay [4], “no binding” in assay [2] and “no binding” in assay [3].

B1: GluK4 kainate receptor subunit (protein, UniProt Q8BMF5 21-956)
chain: T1 sequence
With B1, the binding result in assay [4] and in assay [3] was “binds” each time.

B2: GluK5 kainate receptor subunit (protein, UniProt Q61626 15-979)
chain: T2 sequence
Regarding B2, the binding entry in assay [4] and in assay [2] was “binds” throughout.
